# “And” between values parts separate entries of the source, which are not always exact repeats. Identical values can stand only once. This list was built around the results that the source calls inconclusive (neither active nor inactive); the mix of calls is not that of the screen. For some assays here: Potencies of inconclusive entries are doubtful fits and often do not repeat. The source made the active and inactive calls. Unless noted, calls come from the whole dose curve; as a rule, active = well fitted curve in the direction sought with a large enough effect in the repeat runs; inconclusive = weak or mixed curves; inactive = no such curve, though single readings can be large; an effect the other way counts as inactive or inconclusive.
# How the values were obtained:
# [1] = biological target: Nuclear receptor subfamily 1 group I member 3 (Homo sapiens) (UniProt Q14994); assay: qHTS assay to identify small molecule antagonists of the constitutive androstane receptor (CAR) signaling pathway (AID 1224838);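 note: HepG2 cells stably expressing hCAR with CYP2B6 luciferase reporter stimulated by CITCO; nearly all actives have a fitted effect of over 40% in size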
# Chain of UniProt Q14994 (Q14994 whole entry, looked up): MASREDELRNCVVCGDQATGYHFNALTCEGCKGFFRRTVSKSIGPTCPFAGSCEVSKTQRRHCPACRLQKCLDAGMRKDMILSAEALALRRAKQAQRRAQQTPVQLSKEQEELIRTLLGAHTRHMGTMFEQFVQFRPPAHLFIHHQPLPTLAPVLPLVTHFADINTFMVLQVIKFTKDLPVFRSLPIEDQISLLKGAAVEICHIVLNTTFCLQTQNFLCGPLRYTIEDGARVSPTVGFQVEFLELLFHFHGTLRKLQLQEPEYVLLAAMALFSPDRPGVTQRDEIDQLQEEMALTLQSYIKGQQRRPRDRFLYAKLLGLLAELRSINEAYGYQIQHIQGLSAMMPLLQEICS
# In short: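 Human hepatoma HepG2 cells expressing hCAR and a CYP2B6 promoter (2.2 kb) luciferase construct; compound titration (15 points) with 50 nM CITCO final, 24 h at 37 C/5% CO2; luminescence via ONE-Glo after 30 min at room temperature.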
# [2] = biological target: Thyrotropin receptor (Homo sapiens) (UniProt P16473); assay: qHTS assay to identify small molecule agonists of the thyroid stimulating hormone receptor (TSHR) signaling pathway (AID 1224843; calls by dose curve; note: nearly all actives have a fitted effect of over 45% in size; for activation: % is set by controls: 0 for no effect and ±100 for the full control effect); settings: TSHR-HEK293 cells, cAMP HTRF, agonist mode, 30 min; activation: at 92.4 µM (top of the series) unless noted
# Chain of UniProt P16473 (P16473 whole entry, looked up): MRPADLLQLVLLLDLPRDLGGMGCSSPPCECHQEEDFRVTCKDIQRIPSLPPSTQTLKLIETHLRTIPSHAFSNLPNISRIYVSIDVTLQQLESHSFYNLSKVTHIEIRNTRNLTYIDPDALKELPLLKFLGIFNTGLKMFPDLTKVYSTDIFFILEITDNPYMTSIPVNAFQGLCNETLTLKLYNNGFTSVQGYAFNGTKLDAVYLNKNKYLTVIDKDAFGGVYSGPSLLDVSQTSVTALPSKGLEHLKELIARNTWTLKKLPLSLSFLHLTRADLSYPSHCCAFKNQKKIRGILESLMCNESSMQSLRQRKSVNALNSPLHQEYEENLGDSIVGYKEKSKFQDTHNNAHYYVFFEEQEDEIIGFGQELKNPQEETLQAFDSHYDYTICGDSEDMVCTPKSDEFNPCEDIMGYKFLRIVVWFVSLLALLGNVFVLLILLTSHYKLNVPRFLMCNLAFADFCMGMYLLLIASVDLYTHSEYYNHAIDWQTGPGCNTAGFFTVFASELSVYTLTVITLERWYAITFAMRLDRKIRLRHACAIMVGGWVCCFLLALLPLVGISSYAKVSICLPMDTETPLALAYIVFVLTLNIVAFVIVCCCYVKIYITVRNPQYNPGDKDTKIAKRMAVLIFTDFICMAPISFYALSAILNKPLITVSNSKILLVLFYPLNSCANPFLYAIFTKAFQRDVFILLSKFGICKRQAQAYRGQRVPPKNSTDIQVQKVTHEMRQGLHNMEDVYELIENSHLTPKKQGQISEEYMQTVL
# In short: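 HEK293/TSHR, 800 cells/well; cpd 30 min RT; add cAMP-d2 + anti-cAMP-cryptate, 1 h RT; fluorescence read on plate reader. 15-pt titration, n=3.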
# [3] = qHTS assay to identify small molecule agonists of the hypoxia (HIF-1) signaling pathway - cell viability counter screen (AID 1224844; calls by dose curve; note: nearly all actives have a fitted effect of over 50% in size)
# In short: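 HRE-bla ME-180; 0.5% dFBS; cpd 17 h, 37C, 5% CO2; CellTiter-Glo lum., 30 min RT, post-FRET read, same wells.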
# [4] = qHTS assay to identify small molecule agonists of H2AX (AID 1224845; active = well fitted activation curve with a large enough effect in the signal ratio in the repeat runs, not every such curve was filed as active; inconclusive = weak or mixed curves; the % refers to the signal ratio; for activation (H2AX phosphorylation): % is set by controls: 0 for no effect and ±100 for the full control effect); settings: CHO-K1 phospho-H2AX Ser139 HTRF, 3 h; activation (H2AX phosphorylation): at 154 µM (top of the series)
# In short: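 Wild-type CHO-K1 cells, plated overnight, exposed 3hr at 37C to 15 concentrations (0.76% DMSO final). Lysed, then HTRF anti-pH2AX (S139) cryptate and anti-H2AX-d2 antibodies, 24 hr room temperature; 665/620 nm emission read.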
# [5] = qHTS assay to identify small molecule agonists of H2AX - cell viability counter screen (AID 1224847; calls by dose curve; note: nearly all actives have a fitted effect of over 30% in size)
# In short: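 We seed wild-type CHO-K1 cells overnight, treat them for 3 hr at 37C with compounds in 15-concentration series, and quantify remaining viability by CellTiter-Glo luminescence.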
# [6] = A CellTox Green Cytotoxicity Assay to monitor cytotoxicity in HEK293 cells - 40 hour (AID 1224871); note: nearly all actives have a fitted effect of over 45% in size
# In short: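 Tox21 screen in HEK293: membrane-impermeant cyanine dye fluoresces on binding dead-cell DNA; compound pinned 5 h post-seeding, plates held at 37 C, signal read repeatedly through 40 h.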
# [7] = qHTS assay to identify small molecule antagonists of the estrogen related receptor signaling pathway with the pleiotropic PPARgamma coactivator (PGC) from Tox21 10K library (AID 1224841; call rule not given here; note: actives are mostly falling curves and most rising ones were filed inactive; nearly all actives have a fitted effect of over 50% in size)
# In short: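 Test chemicals dissolved in DMSO were applied to pre-incubated (6 h) PGC/ERR cells at 2,000 cells/well for an 18 h, 37 C treatment; reporter luminescence was then read using One-Glo.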
# [8] = qHTS assay to identify small molecule antagonists of the estrogen related receptor (ERR) signaling pathway from Tox21 library (AID 1224848); note: nearly all actives have a fitted effect of over 50% in size
# In short: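 Compounds dissolved in DMSO are pin-transferred onto ERR reporter cells (2,000 per well) that have settled for 6 h at 37 C. Plates then incubate 18 h at 37 C before ONE-Glo luciferase reagent and a luminescence read 30 min later.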
# [9] = qHTS RealTime-Glo MT Cell Viability Assay in HEK293 cells - 32 hour (AID 1224868); note: nearly all actives have a fitted effect of over 50% in size
# In short: (§1)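 HEK293 cells seeded with NanoLuc/prosubstrate reagent, rested 5 h at 37 C, then dosed and kept at 37 C up to 40 h. Nonlytic real-time luminescence from viable cells read at 0, 8, 16, 24, 32 and 40 h.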
# [10] = qHTS RealTime-Glo MT Cell Viability Assay in HEK293 cells - 16 hour (AID 1224872); note: nearly all actives have a fitted effect of over 50% in size
# In short: as §1
# [11] = qHTS RealTime-Glo MT Cell Viability Assay in HEK293 cells - 40 hour (AID 1224874); settings: RealTime-Glo luminescence; max response: stronger effect = lower value; note: nearly all actives have a fitted effect of over 50% in size
# In short: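 HEK293 + NanoLuc + prosubstrate, 600 cells/well; 5 h, 37 C/5% CO2; compound 23 nL in DMSO by pintool; 37 C; luminescence read at 0, 8, 16, 24, 32 and 40 h time points.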
# [12] = qHTS assay to identify small molecule antagonists of the estrogen related receptor signaling pathway with the pleiotropic PPARgamma coactivator (PGC) from Tox21 10K library - cell viability counter screen (AID 1224840; active = well fitted cell-killing curve with a large enough effect in the repeat runs, not every such curve was filed as active; inconclusive = weak or mixed curves, or effect the other way; inactive = no such curve, though single readings can be large or run the other way; note: nearly all actives have a fitted effect of over 40% in size)
# In short: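 Seeded PGC/ERR cells (2,000/well, 6 h, 37 C/5% CO2) get compound by pin tool; 17.5 h incubation at 37 C; CellTiter-Fluor added, 30 min, fluorescence measured.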
# [13] = biological target: Nuclear receptor subfamily 1 group I member 3 (Homo sapiens) (UniProt Q14994); assay: qHTS assay to identify small molecule agonists of the constitutive androstane receptor (CAR) signaling pathway (AID 1224839); note: nearly all actives have a fitted effect of over 15% in size
# In short: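 A 15-concentration quantitative screen uses HepG2 cells co-transfected stably with human CAR and CYP2B6-2.2kb reporter. Treatment lasts 24 h with 0.75 uM PK11195 final present; ONE-Glo luminescence is the signal.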
# [14] = qHTS assay to identify small molecule agonists of the estrogen related receptor signaling pathway with the pleiotropic PPARgamma coactivator (PGC) from Tox21 10K library (AID 1224842); note: nearly all actives have a fitted effect of over 15% in size
# In short: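 PGC/ERR reporter cell line, 2,000 cells per well, incubated 6 h at 37 C before 23 nL compound in DMSO was added. After 18 h at 37 C, One-Glo luminescence read following 30 min at room temperature.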
# [15] = qHTS assay to identify small molecule agonists of the hypoxia (HIF-1) signaling pathway (AID 1224846; active = well fitted activation curve with a large enough effect in the signal ratio in the repeat runs, not every such curve was filed as active; inconclusive = weak or mixed curves; the % refers to the signal ratio); settings: HRE-bla ME-180 cells, beta-lactamase ratio, 17 h; activation: at 76.8 µM (top of the series) unless noted
# In short: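 Reporter induction in HRE-bla ME-180 cells is taken as agonism: cells sit 5 hrs after plating, receive compounds or DMSO only, incubate 17 hrs at 37C under 5% CO2, and are loaded with CCF4-AM for beta-lactamase FRET measurement.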
# [16] = qHTS RealTime-Glo MT Cell Viability Assay in HepG2 cells - 40 hour (AID 1224870); note: nearly all actives have a fitted effect of over 50% in size
# In short: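 HepG2 cells (600/well) mixed with RealTime-Glo MT reagent, settled 5 h at 37 C/5% CO2 before compound addition. Nonlytic NanoLuc luminescence from viable-cell prosubstrate reduction read repeatedly during 40 h treatment at 37 C.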
# Potency is the fitted concentration of half-maximal effect; tags give direction and shape of the fitted curve or compound fluorescence and quenching.
structure (smiles),measurement,setting,value
O=C(O)COc1ccc(Cl)cc1,Potency,[1],inactive
COP(=O)(OC)OC(Br)C(Cl)(Cl)Br (stereo not given),Potency,[1],"inconclusive: 68.7 µM [inhibitor, single point]"
same,Potency,[2],inconclusive: 68.6 µM [activator]
same,activation,[2],inconclusive: 29.6%
same,Potency,[3],"inconclusive: 61.7 µM [cytotoxic, single point]"
same,Potency,[4],"inconclusive: 113 µM [activator, single point]"
same,Potency,[5],"inconclusive: 127 µM [cytotoxic, single point]"
same,Potency,[6],"inconclusive: 55 µM [activator, single point] and inconclusive: 61.6 µM [activator, single point]"
COP(=O)(OC)SCn1c(=O)oc2cc(Cl)cnc21,Potency,[1],"inconclusive: 77 µM [inhibitor, single point]"
same,Potency,[7],"inconclusive: 48.6 µM [falling, partial curve]"
same,Potency,[2],active: 24.3 µM
same,Potency,[4],inactive
same,Potency,[5],"inconclusive: 50.5 µM [rising, partial curve, poor fit]"
same,Potency,[8],"inconclusive: 54.5 µM [inhibitor, partial curve]"
same,Potency,[9],"inconclusive: 61.6 µM [cytotoxic, single point]"
same,Potency,[6],"inconclusive: 24.5 µM [activator, partial curve, poor fit]"
same,Potency,[10],"inconclusive: 34.7 µM [cytotoxic, partial curve]"
same,Potency,[11],"inconclusive: 61.6 µM [cytotoxic, partial curve, poor fit]"
CCc1cccc(CC)c1N(COC)C(=O)CCl,Potency,[1],inactive
same,Potency,[12],"inconclusive: 68.6 µM [cytotoxic, partial curve, poor fit]"
same,Potency,[2],"inconclusive: 54.5 µM [activator, partial curve]"
same,Potency,[3],"inconclusive: 54.9 µM [cytotoxic, single point]"
same,Potency,[4],inconclusive: 123 µM [activator]
same,activation (H2AX phosphorylation),[4],inconclusive: 5.43%
same,Potency,[9],"inconclusive: 33.6 µM [cytotoxic, partial curve]"
same,Potency,[11],"inconclusive: 33.6 µM [cytotoxic, partial curve]"
O=C(CCl)c1ccc(Cl)cc1Cl,Potency,[1],"inconclusive: 68.2 µM [inhibitor, single point]"
same,Potency,[12],"inconclusive: 11.9 µM [cytotoxic, partial curve, poor fit]"
same,Potency,[2],"inconclusive: 27.2 µM [activator, partial curve] and inactive"
same,Potency,[3],"inconclusive: 15.4 µM [cytotoxic, partial curve] and inconclusive: 26.8 µM [cytotoxic, single point]"
same,Potency,[8],"inactive and inconclusive: 21.1 µM [inhibitor, partial curve]"
same,Potency,[9],"inconclusive: 13.7 µM [cytotoxic, full curve] and active: 3.01 µM"
same,Potency,[6],"inconclusive: 54.7 µM [activator, single point]"
same,Potency,[10],"inconclusive: 48.7 µM [cytotoxic, partial curve]"
same,Potency,[11],active: 17.3 µM and active: 2.39 µM
COC(=O)c1ccccc1N,Potency,[1],inactive
same,Potency,[2],inactive
c1ccc2c(c1)cc1ccc3cccc4ccc2c1c34,Potency,[1],"inconclusive: 2.21 µM [inhibitor, full curve, poor fit]"
same,Potency,[13],"inconclusive: 35 µM [activator, partial curve]"
same,Potency,[12],"inconclusive: 69.9 µM [rising, single point]"
same,Potency,[14],active: 22.1 µM
same,Potency,[15],"inconclusive: 49.9 µM [fluorescent, partial curve]"
same,Potency,[10],"inconclusive: 22.3 µM [cytotoxic, full curve]"
CC(C)(c1ccccc1)c1ccc(O)c(C(C)(C)c2ccccc2)c1,Potency,[1],"inconclusive: 68 µM [inhibitor, single point] and inconclusive: 68.6 µM [inhibitor, single point]"
same,Potency,[7],"inconclusive: 43.3 µM [falling, partial curve, poor fit]"
same,Potency,[2],active: 54.5 µM
same,activation,[2],inconclusive: 33.5%
same,Potency,[15],"inconclusive: 24.3 µM [falling, full curve] and inconclusive: 24.5 µM [falling, full curve]"
same,Potency,[16],"inconclusive: 54.4 µM [falling, single point]"
same,Potency,[10],active: 21.7 µM and active: 43.6 µM

# Reference: PubChem BioAssay (Tox21)
